Experimental data published in a collection of fitness landscapes (doi:10.1016/j.celrep.2020.107928).
Over roughly 81,000 sequences, “one-hybrid fitness for binding NBS DNA” has its median near -0.1; the highest 2% begin near 0.36. This is one part of the list.

B1: Caulobacter ParB omega fusion; a variant is named by its letters at X, in order, B8GW30 (parent)
chain: MESVVVGEPGMSEGRRGLGRGLSALLGEVDAAPAQAPGEQLGGSREAPIEILQRNPDQPRRTFREEDLEDLSNSIREKGVLQPILVRPSPDTAGEYQIVAGERAWRAAQRAGLKTVPIMVRELDDLAVLEIGIIENVQRADLNVLEEALSYKVLMEKFERTQENIAQTIGKSXSHVANXMRLLXLPDEVQSYLVSGELTAXHARAIAAAADPVALAKQIIEGGLSVRETEALARKAPNLSAGKSKGGRPPRVKDTDTQALESDLSSVLGLDVSIDHRGSTGTLTITYATLEQLDDLCNRLTRGI

Variants of: B1
Assay: one-hybrid fitness for binding NBS DNA (the Noc-binding site; scaled: cognate 1, non-cognate 0); higher = stronger binding
Details: with NBS DNA site
Outline: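 Bacterial one-hybrid selection in E. coli USO rpoZ- hisB- pyrF- with a HIS3 reporter carrying the site 19 bp from the promoter, screening Caulobacter ParB libraries with four specificity codons randomised (NNS). Cells grew 48 hours at 37°C on M9-minus-histidine plus 0.1 mM IPTG and 5 mM 3-AT. Plasmids before and after selection were Illumina-sequenced, three replicate libraries pooled, and variants under 10 reads dropped. Fitness is the log change in variant-to-wild-type read ratio, rescaled to cognate 1, non-cognate 0.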

Variant | one-hybrid fitness for binding NBS DNA
LFVN | ≤ 0.2
PGTC | ≤ 0.2
GLTR | ≤ 0.2
YPDR | ≤ 0.2
IWHG | ≤ 0.2
HVNK | ≤ 0.2
RGCS | ≤ 0.2
THTI | ≤ 0.2
QMKN | 0.4
YKHY | ≤ 0.2
WVHL | ≤ 0.2
TRCG | ≤ 0.2
SVLR | ≤ 0.2
VRAQ | ≤ 0.2
PYVG | ≤ 0.2
PGRM | ≤ 0.2
AHAK | ≤ 0.2
DHSG | ≤ 0.2
SWPE | ≤ 0.2
SWAS | ≤ 0.2
SAGN | ≤ 0.2
HTGL | ≤ 0.2
MYTC | ≤ 0.2
KPLN | ≤ 0.2

Variant | one-hybrid fitness for binding NBS DNA
ACDC | ≤ 0.2
PQQW | ≤ 0.2
NWRR | ≤ 0.2
HYEL | ≤ 0.2
FSSD | ≤ 0.2
LCQS | ≤ 0.2
ASHH | ≤ 0.2
QTDI | ≤ 0.2
LREA | ≤ 0.2
WMTV | ≤ 0.2
ARLC | ≤ 0.2
RTLF | ≤ 0.2
FEPI | ≤ 0.2
KQFN | ≤ 0.2
RCSK | ≤ 0.2
QWLY | ≤ 0.2
LAKY | ≤ 0.2
MRVT | ≤ 0.2
RSTL | ≤ 0.2
CLPL | ≤ 0.2
SPER | ≤ 0.2
NRTE | ≤ 0.2
NVDS | ≤ 0.2
LENS | ≤ 0.2

Variant | one-hybrid fitness for binding NBS DNA
TVMR | ≤ 0.2
YRMM | ≤ 0.2
PYWT | 0.298
FVYG | ≤ 0.2
PTEN | ≤ 0.2
GSTF | ≤ 0.2
NMER | ≤ 0.2
KLRV | ≤ 0.2
MRQG | ≤ 0.2
LHRV | ≤ 0.2
RANW | ≤ 0.2
NDNI | ≤ 0.2
DQYG | ≤ 0.2
PSKL | ≤ 0.2
ITEV | ≤ 0.2
DMRR | ≤ 0.2
APWP | ≤ 0.2
HFRF | ≤ 0.2
SYER | ≤ 0.2
HREL | ≤ 0.2
ISMG | ≤ 0.2
VNHG | ≤ 0.2
MGLP | ≤ 0.2
QMTT | 0.463

Variant | one-hybrid fitness for binding NBS DNA
CNWG | ≤ 0.2
GMMR | ≤ 0.2
SMSY | ≤ 0.2
TLCE | ≤ 0.2
LHTE | ≤ 0.2
KMSS | ≤ 0.2
FLHR | ≤ 0.2
MLWF | ≤ 0.2
TLKW | ≤ 0.2
MNDC | ≤ 0.2
KNTL | ≤ 0.2
VPEK | ≤ 0.2
ILSW | ≤ 0.2
VMCG | ≤ 0.2
NFMR | ≤ 0.2
YEAF | ≤ 0.2
MSVT | ≤ 0.2
QSSD | ≤ 0.2
LYPT | ≤ 0.2
KMSN | ≤ 0.2
QPRG | ≤ 0.2
VQGR | ≤ 0.2
AGSE | ≤ 0.2
FGLS | ≤ 0.2

Variant | one-hybrid fitness for binding NBS DNA
HNMC | ≤ 0.2
LTPY | ≤ 0.2
RIPG | ≤ 0.2
PNMA | ≤ 0.2
TVRF | ≤ 0.2
NYST | ≤ 0.2
ALDR | ≤ 0.2
KTRP | ≤ 0.2
PHCW | ≤ 0.2
QCPC | ≤ 0.2
LTKE | ≤ 0.2
GDTF | ≤ 0.2
PRHG | ≤ 0.2
QVLE | ≤ 0.2
NVAG | ≤ 0.2
HRPW | ≤ 0.2
YTRH | ≤ 0.2
QYKS | 0.643
DCFS | ≤ 0.2
SRMV | ≤ 0.2
SLWC | ≤ 0.2
RKNG | ≤ 0.2
WTLR | ≤ 0.2
LPDT | ≤ 0.2

Variant | one-hybrid fitness for binding NBS DNA
RATH | ≤ 0.2
DYIA | ≤ 0.2
PAIT | ≤ 0.2
CHFG | ≤ 0.2
ISGR | ≤ 0.2
RWGE | ≤ 0.2
AYKG | ≤ 0.2
RWPC | ≤ 0.2
DVWY | ≤ 0.2
DHAD | ≤ 0.2
DKQS | ≤ 0.2
HWKA | ≤ 0.2
PHKW | ≤ 0.2
SRGI | ≤ 0.2
GVTM | ≤ 0.2
DPRP | ≤ 0.2
KREG | ≤ 0.2
PHWS | ≤ 0.2
LKLG | ≤ 0.2
KRYR | 0.545
NTER | ≤ 0.2
GRDD | ≤ 0.2
IEHR | ≤ 0.2
KNAT | ≤ 0.2

Variant | one-hybrid fitness for binding NBS DNA
QTYC | ≤ 0.2
SCCS | ≤ 0.2
LMNR | ≤ 0.2
KYLW | ≤ 0.2
QHVV | ≤ 0.2
VPGR | ≤ 0.2
LHKG | ≤ 0.2
KLGY | ≤ 0.2
TLFL | ≤ 0.2
QATE | ≤ 0.2
GRNE | ≤ 0.2
DLQW | ≤ 0.2
AQDP | ≤ 0.2
YTLL | ≤ 0.2
AYGS | ≤ 0.2
NWFS | ≤ 0.2
CTPA | ≤ 0.2
PCAH | ≤ 0.2
SWYG | ≤ 0.2
NCKH | ≤ 0.2
WSLA | ≤ 0.2
FFKR | ≤ 0.2
KQYG | ≤ 0.2
GPNA | ≤ 0.2

Variant | one-hybrid fitness for binding NBS DNA
MCQG | ≤ 0.2
PNVE | ≤ 0.2
IESM | ≤ 0.2
FNMT | ≤ 0.2
QTEG | ≤ 0.2
TVSR | ≤ 0.2
PHWA | ≤ 0.2
CGFR | ≤ 0.2
QKDV | ≤ 0.2
DPRK | ≤ 0.2
YIIG | ≤ 0.2
SHPK | ≤ 0.2
NTYW | ≤ 0.2
AYYA | ≤ 0.2
ELMR | ≤ 0.2
RWPS | ≤ 0.2
CWKP | ≤ 0.2
WGLT | ≤ 0.2
QLGM | ≤ 0.2
REMG | ≤ 0.2
HAKP | ≤ 0.2
EGTS | ≤ 0.2
NHDR | ≤ 0.2
QKRR | 0.993

Variant | one-hybrid fitness for binding NBS DNA
PNLN | ≤ 0.2
VSLD | ≤ 0.2
LLWT | ≤ 0.2
SHKG | ≤ 0.2
HSRY | ≤ 0.2
ESTI | ≤ 0.2
LNQW | ≤ 0.2
PFVA | ≤ 0.2
RAAE | ≤ 0.2
EVGC | ≤ 0.2
PALD | ≤ 0.2
GATV | ≤ 0.2
ITTI | ≤ 0.2
YDYM | ≤ 0.2
QHIM | ≤ 0.2
AKDK | ≤ 0.2
RKNY | 0.27
TGDF | ≤ 0.2
QFKC | ≤ 0.2
SPIP | ≤ 0.2
DGIS | ≤ 0.2
GISY | ≤ 0.2
NWRG | ≤ 0.2
QREA | 0.288

Variant | one-hybrid fitness for binding NBS DNA
DTWG | ≤ 0.2
RLYL | ≤ 0.2
EMAT | ≤ 0.2
SRTY | ≤ 0.2
MSSH | ≤ 0.2
KRMQ | ≤ 0.2
KRHY | 0.254
EAER | ≤ 0.2
SGLY | ≤ 0.2
NQSS | ≤ 0.2
HSVL | ≤ 0.2
HRME | ≤ 0.2
HGDR | ≤ 0.2
AEEY | ≤ 0.2
HSST | ≤ 0.2
PFKE | ≤ 0.2
RRRR | 0.904
FHPS | ≤ 0.2
NDIV | ≤ 0.2
RGMW | ≤ 0.2
GGRR | ≤ 0.2
HVSY | ≤ 0.2
QHQV | ≤ 0.2
PYDN | ≤ 0.2

Variant | one-hybrid fitness for binding NBS DNA
PHQL | ≤ 0.2
HRRV | ≤ 0.2
RALD | ≤ 0.2
RFQH | ≤ 0.2
VKIS | ≤ 0.2
SPTL | ≤ 0.2
QLRN | 0.319
PTMQ | ≤ 0.2
NPSH | ≤ 0.2
QLVF | ≤ 0.2
LPYN | ≤ 0.2
ELRG | ≤ 0.2
TTWD | ≤ 0.2
VEHY | ≤ 0.2
VNKN | ≤ 0.2
RQDD | ≤ 0.2
ALMT | ≤ 0.2
ARMT | ≤ 0.2
RNDD | ≤ 0.2
VYPC | ≤ 0.2
VLRD | ≤ 0.2
AVVY | ≤ 0.2
TNPH | ≤ 0.2
KLPC | ≤ 0.2

Variant | one-hybrid fitness for binding NBS DNA
ALKR | ≤ 0.2
MFLG | ≤ 0.2
TAVS | ≤ 0.2
MRNS | ≤ 0.2
PLTK | ≤ 0.2
WSCR | ≤ 0.2
YIRR | ≤ 0.2
KASV | ≤ 0.2
REMK | ≤ 0.2
HASI | ≤ 0.2
KARN | ≤ 0.2
HYTR | ≤ 0.2
QNQL | ≤ 0.2
FTKC | ≤ 0.2
QWLL | ≤ 0.2
MTKQ | ≤ 0.2
LIQC | ≤ 0.2
RAEI | ≤ 0.2
PTSE | ≤ 0.2
DQNF | ≤ 0.2
HNTN | ≤ 0.2
RVDP | ≤ 0.2
LWVG | ≤ 0.2
RKNT | 0.698

Variant | one-hybrid fitness for binding NBS DNA
LYRY | ≤ 0.2
DVFC | ≤ 0.2
PCTY | ≤ 0.2
MRCE | ≤ 0.2
SNYC | ≤ 0.2
YQMA | ≤ 0.2
VHHC | ≤ 0.2
ILYN | ≤ 0.2
NFPG | ≤ 0.2
AMWR | ≤ 0.2
QCYG | ≤ 0.2
PVSR | ≤ 0.2
SFSS | ≤ 0.2
SIAM | ≤ 0.2
PIAL | ≤ 0.2
YTTF | ≤ 0.2
VQHI | ≤ 0.2
DVDC | ≤ 0.2
